From ChEMBL document CHEMBL4888484, “Replenishing the malaria drug discovery pipeline: Screening and hit evaluation of the MMV Hit Generation Library 1 (HGL1) against asexual blood stage Plasmodium falciparum ,using a nano luciferase reporter read-out” (2022)
Out of some 150,000 compounds screened, about 540 (0.36%) showed an effect of 50% or more. The list shows a part of the results.

These compounds were tested on Plasmodium falciparum (assay: Primary screen in NF54 nanoGlo assay, in single point, at 2uM, 72h; a lower Z score goes with more inhibition). Conditions: timepoint 72 hour.
Type: functional, Erythrocyte

Structure (SMILES)	% Inhibition [%]	Z score
O=C(CCc1ccsc1)N[C@H]1CCOC[C@@H]1O	-6	0.56
CCOc1ccc(CC(=O)N2CCC3(CC2)NC(c2ccc(C)cc2)=NO3)cc1	-14	1.78
O=C(Cc1cc(F)ccc1F)N1CC2(CCOCC2)C1	-7	1.32
COc1ccc2c(c1)CC[C@H]2C(=O)Nc1ccnn1C1CC1	-12	1.35
C[C@H](CCC(=O)Nc1ccc2c(c1)OCO2)[C@H]1CC[C@H]2[C@@H]3[C@@H](O)C[C@@H]4C[C@H](O)CC[C@]4(C)[C@H]3CC[C@]12C	-12	1.52
Cc1cccnc1-n1nc(-c2ccccc2)nc1CNC(=O)c1ccccc1	-6	1.08
Cc1cnc(Cn2cc(Br)c(C)cc2=O)o1	3	-0.5
Cn1nncc1CN1CC[C@H](n2cccn2)C1	-11	1.9
Cc1cc(C)n(CC2CCN([C@@H](C)c3cccnc3)CC2)n1	3	-0.41
Cc1cccc(N2CCN(c3ccc(C(=O)O)cc3NS(=O)(=O)c3cc(C)ccc3C)C[C@@H]2C)c1	-5	0.45
CC(C)[C@H](NC(=O)c1c(F)cccc1F)C(=O)OCc1c(F)c(F)c(F)c(F)c1F	-2	0.37
Cc1csc(C(=O)NCc2cnn3c2CCCC3)c1	8	-1.28
O=C(CS(=O)(=O)c1ccccc1)Nc1nc(-c2ccc3c(c2)OCO3)cs1	-10	1.57
COC[C@H](C)NC(=O)Nc1ccc(F)cc1C	-12	1.08
COc1cc(OC23CCCN(CC2)C3)cc(Cl)c1CN1CCCC1 (stereo not given)	-8	1.09
Cc1cccc(-c2nnc3c4ccccc4nc(N4CCN(S(=O)(=O)c5cccc(C)c5)[C@@H](C)C4)n23)c1	8	-1.2
O=C(Cn1cncn1)N1CCC(c2nc3cc(Cl)ccc3o2)CC1	-9	1.45
COc1cc(N)c(N)c(Br)c1	13	-1.97
Cc1ccc2c(c1C)-n1cccc1C1(CCN(S(=O)(=O)c3ccc(CC(C)C)cc3)CC1)N2	6	-0.85
O=C(Cn1nc(C(=O)N2CCc3ccccc32)ccc1=O)NCc1ccco1	-11	1.44
CC1(C(=O)NC(C#N)c2cccc(Cl)c2Cl)CCCO1 (stereo not given)	-8	1.04
c1ccc(Oc2ccc3oc4ccccc4c3c2)nc1	7	-1.11

Structure (SMILES)	% Inhibition [%]	Z score
Cc1ccc(C2(c3noc(COc4ccc(CC(N)=O)cc4)n3)CCCC2)cc1	0	0.03
Cc1cnn(CCNCCc2cccs2)c1	-14	2.22
COc1cccc(CN2C(=O)C(=O)N(CCC3OCCCO3)C2=O)c1	-3	0.56
CC(=O)c1cccc(OC(C)C(=O)N2CCC3C(CCCN3Cc3ccccc3)C2)c1 (stereo not given)	-10	0.93
Cc1ccc(CN(Cc2ccccc2)C(=O)CN(C(=O)Cc2ccc(F)cc2)C2CC2)o1	-7	0.8
O=C(NCC1CN(C(=O)c2ccccc2)C2CCN1C2)c1ncoc1C1CCCO1 (stereo not given)	-18	2.04
CN1CCN(c2cc(-c3ccccc3)nc3c(C(F)(F)F)cccc23)CC1	-6	0.84
Cc1cc(NC(=O)CN2C(=O)C[C@]3(CCc4ccccc43)C2=O)no1	-7	1.36
CCC[C@@H](C(=O)OCC)N1CCN(CC)CC1	-1	0.09
CCCCN1CCOCC1C(=O)NCC1(O)CCOC1 (stereo not given)	-2	0.22
CN(CCCC1CCCC1)C(=O)c1cc(O)ccc1F	-5	0.9
O=C(OC1CN(c2nc3ccccc3s2)C1)c1c(F)cccc1Cl	-5	0.6
CCCn1nc(C(=O)N(C)Cc2ccc(C)o2)ccc1=O	2	-0.35
Fc1cccc(F)c1OC[C@@H]1CCCN2CCCC[C@H]12	2	-0.25
CC1CCC(NC(=O)c2nc[nH]n2)CC1 (stereo not given)	3	-0.34
COc1cccc(C(=O)COc2ccccc2N2C(=O)C3CCCCC3C2=O)c1 (stereo not given)	-10	1.29
Cc1oc2ccccc2c1CNC(=O)N1CCC(C)(CO)CC1	-20	3.05
CCCc1nnc(N2CCCN(CC)CC2)s1	-3	0.36
O=C(Cn1ncccc1=O)NCCCc1cnc2ncnn2c1	-3	0.63
COc1ccccc1OCCN1CC[C@@]2(CCCOC2)C1	-13	1.27
Cc1cc(CN(CCCn2ccnc2)Cc2cccnc2)[nH]n1	-9	1.31
O=C1C[C@H](N2CCN(Cc3ccccc3)CC2)C(=O)N1c1ccc2c(c1)OCO2	-4	0.81

Structure (SMILES)	% Inhibition [%]	Z score
C/C=C(\C)C(=O)N1CC[C@@]2(CCCN(CCCc3ccccc3)C2)C1	8	-1
Cc1nc(-c2cccc(C(=O)Nc3ccc(F)cc3Cl)c2)cs1	-7	0.88
CC(C)Cc1noc(Cn2ncccc2=O)n1	-20	2.72
Cc1cnc(CC[C@H]2CCCN2C(=O)C(C)(C)C)n1C	28	-3.71
O=C(NCCc1cccc(Cl)c1Cl)[C@H]1CC12CCNCC2	-19	1.73
CC(C)[C@@H]1NC(=O)N(Cc2noc3c2CCCC3)C1=O	-4	0.72
C=CCc1cc(CNc2n[nH]c(OC)n2)cc(OC)c1O	-7	1.35
O=C(c1ccc2c(c1)OCO2)N1CCc2ncncc2C1	-4	0.7
C[C@]1(O)CCN(C(=O)Cc2ccccn2)C[C@H]1Cc1ccccc1	-3	0.5
CC[C@H](C)Cc1nc(-c2n[nH]nc2C)n(CC(C)(C)O)n1	-26	2.27
CCCCOc1ccc(-c2nc(=O)c(CCC(=O)N(C)CC)n[nH]2)cc1	-7	1.16
CC(O)CN1CCN(C(=O)Nc2ccc3c(c2)OCO3)C(C)C1 (stereo not given)	3	-0.33
Cc1cccc([C@H](CNC(=O)c2cnc(N(C)C)nc2C)N(C)C)c1	7	-1.04
COc1ccc(C(=O)Nc2nonc2NC(=O)c2ccc(OC)c(Br)c2)cc1Br	-20	2.67
O=C(NCc1cccnc1)c1nn(-c2ccc(Cl)cc2)c(=O)n(Cc2ccccc2)c1=O	-11	1.52
COc1ncc(-c2cccc(-c3ccn(CCO)n3)c2)c(OC)n1	-4	0.64
C[C@H](NC(=O)CCc1cnn(C)c1)c1nc(C2CC2)no1	-2	0.27
CC(C)N1CCN(C(=O)c2cc(-c3ccco3)[nH]n2)CC1	-13	2.25
CN(Cc1cnn(C)c1)C(=O)c1ccoc1	-5	0.85
Cc1ccc2sc(CN3CCC(C(=O)NCc4ccccc4)CC3)nc2c1	8	-0.78
CCC(C)(CC)NS(=O)(=O)c1ccc(OC2CCOCC2)c(F)c1	-5	0.71
O=C(Nc1ccc(Nc2ccccc2)cc1)N[C@H]1CC(=O)N(c2ccc3c(c2)OCCO3)C1	31	-3.94

Structure (SMILES)	% Inhibition [%]	Z score
N#Cc1cccc(Cl)c1NCCN1CCCOCC1	0	0.04
COc1ccccc1Cc1nc2c(c(N3CCOCC3)n1)CN(C(=O)c1cccc3ccccc13)CC2	1	-0.24
N#CC1C2CCC(C2)C1C(=O)c1ccccc1 (stereo not given)	-30	3.57
O=C1NC(=O)c2ccc(N3CCCC3)c3cccc1c23	-8	1.07
COc1ccc(CC2CCN(C(=O)NCc3ccccn3)CC2)cc1	-16	1.96
C=C(C)C[C@H](NC(C)=O)C(=O)NCc1cccc(OCC)c1	1	-0.22
CCOc1cc2cc(c1)C(=O)N(C)CC(=O)N[C@@H]1CN(Cc3noc(C4CC4)n3)CC[C@@H]1OCc1cccc(c1)O2	-17	2.12
Cc1oc(S(=O)(=O)N(C)C)cc1-c1nc(C2CC2)no1	-13	1.35
O=C(Cc1ccccc1)Nc1ccc(-c2nc3cc(Cl)ccc3o2)cc1	-12	2.32
CCn1cnc2c(NCc3cnn4c3CCCC4)ncnc21	-2	0.29
CCC[C@H]1CN(Cc2nccn2Cc2ccccc2)C[C@@H]1NS(C)(=O)=O	-7	1.02
Cc1cccc2c(CC(=O)N3C[C@@H]4CCC[C@]4(C(N)=O)C3)c[nH]c12	-15	2.53
CC[C@@H](C(=O)N1CCN(c2ccnc3nncn23)CC1)N1CCCC1	-4	0.61
O=C(OC1CCOCC1)N1CCC[C@H](Oc2ccncc2Cl)C1	4	-0.53
Cc1nc(CN2CCC[C@H](CN3CCOCC3)C2)n(C)c1C	-2	0.45
COc1cc(C(=O)NCc2noc(Cc3ccccc3)n2)cc(OC)c1OC	-2	0.25
COc1ccc(/C=C/c2nc(-c3cccc(-c4csc(C)n4)c3)no2)cc1	-10	1.09
N#C[C@@H](C(=O)NCc1ccccc1)c1nc2ccccc2s1	-2	0.39
Cc1ccc(-c2onc(C)c2C(=O)Nc2nc3ccc(S(C)(=O)=O)cc3s2)cc1	1	-0.15
